Data taken from article PMC6751209.
Results are given in words; binding and its absence hold for the method and conditions named. In cells and extracts the contact can be indirect. Some binding calls cover weakened binding; strength is not graded here. For some assays here: Sequences can lack the tags named with a protein. Blank lines part the entries; values can stand above or below the binder they belong to.

Chains of the proteins cited; added tags and fusions are not shown.
UniProt Q12888: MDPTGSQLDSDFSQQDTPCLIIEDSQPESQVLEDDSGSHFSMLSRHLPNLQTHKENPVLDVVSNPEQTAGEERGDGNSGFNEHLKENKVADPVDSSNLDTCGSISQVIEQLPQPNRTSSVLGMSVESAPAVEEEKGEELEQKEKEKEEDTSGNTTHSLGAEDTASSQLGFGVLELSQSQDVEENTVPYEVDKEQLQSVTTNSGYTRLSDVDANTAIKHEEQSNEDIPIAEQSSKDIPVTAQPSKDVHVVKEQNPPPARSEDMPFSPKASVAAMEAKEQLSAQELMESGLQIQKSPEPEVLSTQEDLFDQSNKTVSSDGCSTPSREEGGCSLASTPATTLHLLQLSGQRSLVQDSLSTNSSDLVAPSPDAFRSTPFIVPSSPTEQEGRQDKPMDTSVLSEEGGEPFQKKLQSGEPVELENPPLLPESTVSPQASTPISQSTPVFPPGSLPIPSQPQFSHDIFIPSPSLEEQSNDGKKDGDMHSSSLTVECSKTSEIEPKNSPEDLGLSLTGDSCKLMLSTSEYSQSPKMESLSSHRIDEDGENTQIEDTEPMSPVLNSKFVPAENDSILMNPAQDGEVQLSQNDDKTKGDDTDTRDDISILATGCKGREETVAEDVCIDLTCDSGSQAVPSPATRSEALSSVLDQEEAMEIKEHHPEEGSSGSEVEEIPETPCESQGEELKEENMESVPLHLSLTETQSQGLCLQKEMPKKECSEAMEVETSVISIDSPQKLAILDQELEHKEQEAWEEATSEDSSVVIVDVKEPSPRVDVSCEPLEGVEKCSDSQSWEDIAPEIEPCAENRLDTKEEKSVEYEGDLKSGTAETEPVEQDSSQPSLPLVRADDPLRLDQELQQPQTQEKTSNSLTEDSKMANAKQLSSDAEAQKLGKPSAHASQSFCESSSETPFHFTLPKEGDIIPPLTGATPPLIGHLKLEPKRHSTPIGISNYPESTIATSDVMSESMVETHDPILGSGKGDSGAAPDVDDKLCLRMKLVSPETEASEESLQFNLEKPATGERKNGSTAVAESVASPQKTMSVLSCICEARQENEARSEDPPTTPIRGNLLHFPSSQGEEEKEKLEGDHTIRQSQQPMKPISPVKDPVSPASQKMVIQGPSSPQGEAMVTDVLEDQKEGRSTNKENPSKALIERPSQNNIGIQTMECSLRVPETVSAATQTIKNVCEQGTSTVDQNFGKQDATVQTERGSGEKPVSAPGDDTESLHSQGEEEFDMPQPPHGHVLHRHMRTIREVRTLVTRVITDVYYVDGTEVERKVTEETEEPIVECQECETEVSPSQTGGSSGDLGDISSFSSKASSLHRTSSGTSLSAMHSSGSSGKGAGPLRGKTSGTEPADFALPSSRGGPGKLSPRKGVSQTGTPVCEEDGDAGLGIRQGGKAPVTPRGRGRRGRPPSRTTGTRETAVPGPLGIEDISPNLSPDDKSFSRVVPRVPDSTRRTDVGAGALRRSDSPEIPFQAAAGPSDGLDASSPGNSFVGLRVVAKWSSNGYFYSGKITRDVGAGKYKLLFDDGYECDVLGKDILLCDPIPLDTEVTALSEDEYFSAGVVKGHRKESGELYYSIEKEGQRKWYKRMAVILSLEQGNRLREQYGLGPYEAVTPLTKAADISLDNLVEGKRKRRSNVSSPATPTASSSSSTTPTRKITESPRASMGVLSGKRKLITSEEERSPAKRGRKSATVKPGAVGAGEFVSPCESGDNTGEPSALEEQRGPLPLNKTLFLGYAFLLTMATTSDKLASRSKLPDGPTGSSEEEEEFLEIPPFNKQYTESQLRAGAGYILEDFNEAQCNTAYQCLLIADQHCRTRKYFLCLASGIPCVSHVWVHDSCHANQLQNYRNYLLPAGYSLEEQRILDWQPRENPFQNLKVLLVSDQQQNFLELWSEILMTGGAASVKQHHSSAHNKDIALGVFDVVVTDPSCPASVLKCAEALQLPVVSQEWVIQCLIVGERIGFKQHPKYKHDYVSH

Tests used:
FLAG-53BP1 = FLAG-53BP1 (UniProt Q12888); assay: co-IP; HeLa transiently transfected with FLAG-53BP1 and Myc-PP4R3β constructs, synchronized to prometaphase (M) with nocodazole; whole cell extracts, FLAG IP, immunoblot; NETN buffer
Myc-PP4R3β S840A = biological target: T1, Myc-PP4R3β S840A (UniProt Q5MIZ7); assay: co-IP; HeLa transiently transfected with Myc-PP4R3β constructs, asynchronous or prometaphase (nocodazole); whole cell extracts, MYC IP, immunoblot for endogenous PP4C; NETN buffer
T1 sequence: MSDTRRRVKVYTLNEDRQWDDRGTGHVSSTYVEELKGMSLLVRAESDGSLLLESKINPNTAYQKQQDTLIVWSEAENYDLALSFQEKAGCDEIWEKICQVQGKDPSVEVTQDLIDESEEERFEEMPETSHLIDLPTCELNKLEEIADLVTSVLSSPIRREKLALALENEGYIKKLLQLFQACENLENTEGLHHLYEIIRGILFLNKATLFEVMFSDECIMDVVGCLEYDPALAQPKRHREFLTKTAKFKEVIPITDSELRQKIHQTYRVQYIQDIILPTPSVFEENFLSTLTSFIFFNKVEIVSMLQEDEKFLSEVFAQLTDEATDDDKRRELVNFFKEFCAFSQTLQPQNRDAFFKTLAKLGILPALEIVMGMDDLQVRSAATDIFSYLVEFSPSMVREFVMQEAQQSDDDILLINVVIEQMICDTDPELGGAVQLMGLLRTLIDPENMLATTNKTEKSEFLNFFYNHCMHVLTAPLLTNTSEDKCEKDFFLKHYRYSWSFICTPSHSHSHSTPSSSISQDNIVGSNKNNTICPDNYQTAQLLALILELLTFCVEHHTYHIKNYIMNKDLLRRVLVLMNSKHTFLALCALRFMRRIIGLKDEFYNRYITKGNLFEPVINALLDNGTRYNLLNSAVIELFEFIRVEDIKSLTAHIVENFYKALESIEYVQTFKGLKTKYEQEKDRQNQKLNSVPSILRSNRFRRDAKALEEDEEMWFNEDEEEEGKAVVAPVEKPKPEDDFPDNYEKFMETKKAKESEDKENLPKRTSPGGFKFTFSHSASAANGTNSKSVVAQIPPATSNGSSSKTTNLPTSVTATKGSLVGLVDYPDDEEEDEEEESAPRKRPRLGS

Myc-PP4R3β S840D = biological target: T2, Myc-PP4R3β S840D (UniProt Q5MIZ7); assay: as above
T2 sequence: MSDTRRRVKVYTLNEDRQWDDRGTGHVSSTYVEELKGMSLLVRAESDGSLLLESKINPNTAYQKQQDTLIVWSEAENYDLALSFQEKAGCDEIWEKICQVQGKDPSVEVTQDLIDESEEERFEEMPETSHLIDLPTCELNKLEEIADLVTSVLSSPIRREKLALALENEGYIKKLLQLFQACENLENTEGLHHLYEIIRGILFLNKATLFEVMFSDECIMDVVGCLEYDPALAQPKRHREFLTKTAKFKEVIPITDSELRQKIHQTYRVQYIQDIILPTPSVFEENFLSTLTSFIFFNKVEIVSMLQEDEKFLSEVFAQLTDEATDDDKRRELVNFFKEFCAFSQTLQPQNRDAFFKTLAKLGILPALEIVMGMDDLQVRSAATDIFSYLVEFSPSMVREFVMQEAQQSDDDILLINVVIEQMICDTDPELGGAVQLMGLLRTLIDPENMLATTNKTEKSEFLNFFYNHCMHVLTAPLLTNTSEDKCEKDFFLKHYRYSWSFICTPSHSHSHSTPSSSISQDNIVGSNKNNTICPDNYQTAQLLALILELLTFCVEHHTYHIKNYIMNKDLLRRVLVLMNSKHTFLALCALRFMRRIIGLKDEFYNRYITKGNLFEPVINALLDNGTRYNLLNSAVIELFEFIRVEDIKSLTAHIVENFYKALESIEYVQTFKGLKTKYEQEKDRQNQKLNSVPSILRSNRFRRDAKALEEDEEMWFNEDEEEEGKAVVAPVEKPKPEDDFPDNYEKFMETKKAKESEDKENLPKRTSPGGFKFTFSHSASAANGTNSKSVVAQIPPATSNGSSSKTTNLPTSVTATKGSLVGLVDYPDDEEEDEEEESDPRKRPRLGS

Myc-PP4R3β S840F = biological target: T3, Myc-PP4R3β S840F (UniProt Q5MIZ7); assay: as above
T3 sequence: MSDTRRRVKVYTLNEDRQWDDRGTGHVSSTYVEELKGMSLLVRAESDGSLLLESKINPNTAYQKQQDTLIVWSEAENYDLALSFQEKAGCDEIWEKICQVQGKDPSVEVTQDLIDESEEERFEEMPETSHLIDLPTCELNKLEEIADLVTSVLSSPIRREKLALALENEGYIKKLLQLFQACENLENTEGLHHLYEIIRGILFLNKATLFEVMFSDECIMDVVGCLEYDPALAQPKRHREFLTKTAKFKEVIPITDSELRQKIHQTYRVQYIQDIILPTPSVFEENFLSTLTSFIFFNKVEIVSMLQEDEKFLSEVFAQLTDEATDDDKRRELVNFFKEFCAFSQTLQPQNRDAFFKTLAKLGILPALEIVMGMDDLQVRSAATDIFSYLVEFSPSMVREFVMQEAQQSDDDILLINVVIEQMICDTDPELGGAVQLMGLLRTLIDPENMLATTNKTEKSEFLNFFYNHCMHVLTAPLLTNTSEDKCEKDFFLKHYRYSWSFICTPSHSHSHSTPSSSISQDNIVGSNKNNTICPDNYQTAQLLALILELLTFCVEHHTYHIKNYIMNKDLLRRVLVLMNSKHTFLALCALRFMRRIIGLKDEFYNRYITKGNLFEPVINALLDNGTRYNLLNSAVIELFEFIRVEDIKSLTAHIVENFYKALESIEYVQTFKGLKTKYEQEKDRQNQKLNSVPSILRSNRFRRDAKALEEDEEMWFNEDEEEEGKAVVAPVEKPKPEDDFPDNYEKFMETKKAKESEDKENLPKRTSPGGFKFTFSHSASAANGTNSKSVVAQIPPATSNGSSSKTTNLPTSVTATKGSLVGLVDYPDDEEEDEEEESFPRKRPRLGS

[1] = biological target: Myc-PP4R3β, full length, wild type (UniProt Q5MIZ7); assay: as above
[2] = biological target: 53BP1 as used in Supplementary Fig. 1a (UniProt Q12888); assay: co-IP; 53BP1 immunoprecipitated with full-length or deletion mutants of PP4R3β (Supplementary Fig. 1a); cells and bait not stated in the text shown; NETN lysis buffer
[3] = biological target: CDK5, endogenous (human (endogenous in HeLa)), Q00535; assay: co-IP; Endogenous CDK5 pulled down from asynchronous cells and from cells in late stages of mitosis (Supplementary Fig. 5a); immunoblot for p35/p25, FIBP, KIAA0528; conditions: remark: other sources report otherwise
[4] = biological target: CDK5, endogenous (human (endogenous in HeLa)) (UniProt Q00535); assay: as above

binding (FLAG-53BP1): binds
B1: Myc-PP4R3β S840D (protein, UniProt Q5MIZ7 1-849)
chain: MSDTRRRVKVYTLNEDRQWDDRGTGHVSSTYVEELKGMSLLVRAESDGSLLLESKINPNTAYQKQQDTLIVWSEAENYDLALSFQEKAGCDEIWEKICQVQGKDPSVEVTQDLIDESEEERFEEMPETSHLIDLPTCELNKLEEIADLVTSVLSSPIRREKLALALENEGYIKKLLQLFQACENLENTEGLHHLYEIIRGILFLNKATLFEVMFSDECIMDVVGCLEYDPALAQPKRHREFLTKTAKFKEVIPITDSELRQKIHQTYRVQYIQDIILPTPSVFEENFLSTLTSFIFFNKVEIVSMLQEDEKFLSEVFAQLTDEATDDDKRRELVNFFKEFCAFSQTLQPQNRDAFFKTLAKLGILPALEIVMGMDDLQVRSAATDIFSYLVEFSPSMVREFVMQEAQQSDDDILLINVVIEQMICDTDPELGGAVQLMGLLRTLIDPENMLATTNKTEKSEFLNFFYNHCMHVLTAPLLTNTSEDKCEKDFFLKHYRYSWSFICTPSHSHSHSTPSSSISQDNIVGSNKNNTICPDNYQTAQLLALILELLTFCVEHHTYHIKNYIMNKDLLRRVLVLMNSKHTFLALCALRFMRRIIGLKDEFYNRYITKGNLFEPVINALLDNGTRYNLLNSAVIELFEFIRVEDIKSLTAHIVENFYKALESIEYVQTFKGLKTKYEQEKDRQNQKLNSVPSILRSNRFRRDAKALEEDEEMWFNEDEEEEGKAVVAPVEKPKPEDDFPDNYEKFMETKKAKESEDKENLPKRTSPGGFKFTFSHSASAANGTNSKSVVAQIPPATSNGSSSKTTNLPTSVTATKGSLVGLVDYPDDEEEDEEEESDPRKRPRLGS

binding (Myc-PP4R3β S840A): binds | binding (Myc-PP4R3β S840D): binds | binding (Myc-PP4R3β S840F): binds | binding [1]: binds
B2: PP4 catalytic subunit (PP4C), endogenous (enzyme, UniProt P60510 1-307)
chain: MAEISDLDRQIEQLRRCELIKESEVKALCAKAREILVEESNVQRVDSPVTVCGDIHGQFYDLKELFRVGGDVPETNYLFMGDFVDRGFYSVETFLLLLALKVRYPDRITLIRGNHESRQITQVYGFYDECLRKYGSVTVWRYCTEIFDYLSLSAIIDGKIFCVHGGLSPSIQTLDQIRTIDRKQEVPHDGPMCDLLWSDPEDTTGWGVSPRGAGYLFGSDVVAQFNAANDIDMICRAHQLVMEGYKWHFNETVLTVWSAPNYCYRCGNVAAILELDEHLQKDFIIFEAAPQETRGIPSKKPVADYFL

binding [2]: binds
B3: Myc-PP4R3β C-terminal region, residues 721–849 (domain or fragment, UniProt Q5MIZ7 721-849)
chain: EEEEGKAVVAPVEKPKPEDDFPDNYEKFMETKKAKESEDKENLPKRTSPGGFKFTFSHSASAANGTNSKSVVAQIPPATSNGSSSKTTNLPTSVTATKGSLVGLVDYPDDEEEDEEEESSPRKRPRLGS

binding [3]: no binding
B4: Fibroblast growth factor (acidic) intracellular binding protein (FIBP), endogenous, O43427 1-364 (protein)
chain: MTSELDIFVGNTTLIDEDVYRLWLDGYSVTDAVALRVRSGILEQTGATAAVLQSDTMDHYRTFHMLERLLHAPPKLLHQLIFQIPPSRQALLIERYYAFDEAFVREVLGKKLSKGTKKDLDDISTKTGITLKSCRRQFDNFKRVFKVVEEMRGSLVDNIQQHFLLSDRLARDYAAIVFFANNRFETGKKKLQYLSFGDFAFCAELMIQNWTLGAVGEAPTDPDSQMDDMDMDLDKEFLQDLKELKVLVADKDLLDLHKSLVCTALRGKLGVFSEMEANFKNLSRGLVNVAAKLTHNKDVRDLFVDLVEKFVEPCRSDHWPLSDVRFFLNQYSASVHSLDGFRHQALWDRYMGTLRGCLLRLYHD

binding [4]: binds
B5: KIAA0528 (C2 calcium-dependent domain containing 5), endogenous (protein, UniProt Q86YS7 1-1000)
chain: MPGKLKVKIVAGRHLPVMDRASDLTDAFVEVKFGNTTFKTDVYLKSLNPQWNSEWFKFEVDDEDLQDEPLQITVLDHDTYSANDAIGKVYIDIDPLLYSEAATVISGWFPIYDTIHGIRGEINVVVKVDLFNDLNRFRQSSCGVKFFCTTSIPKCYRAVIIHGFVEELVVNEDPEYQWIDRIRTPRASNEARQRLISLMSGELQRKIGLKVLEMRGNAVVGYLQCFDLEGESGLVVRAIGTACTLDKLSSPAAFLPACNSPSKEMKEIPFNEDPNPNTHSSGPSTPLKNQTYSFSPSKSYSRQSSSSDTDLSLTPKTGMGSGSAGKEGGPFKALLRQQTQSALEQREFPFFTLTAFPPGFLVHVGGVVSARSVKLLDRIHNPDEPETRDAWWAEIRQEIKSHAKALGCHAVVGYSESTSICEEVCILSASGTAAVLNPRFLQDGTVEGCLEQRLEENLPTRCGFCHIPYDELNMPFPAHLTYCYNCRKQKVPDVLFTTIDLPTDATVIGKGCLIQARLCRLKKKAQAEANATAISNLLPFMEYEVHTQLMNKLKLKGMNALFGLRIQITVGENMLMGLASATGVYLAALPTPGGIQIAGKTPNDGSYEQHISHMQKKINDTIAKNKELYEINPPEISEEIIGSPIPEPRQRSRLLRSQSESSDEVTELDLSHGKKDAFVLEIDDTDAMEDVHSLLTDVPPPSGFYSCNTEIMPGINNWTSEIQMFTSVRVIRLSSLNLTNQALNKNFNDLCENLLKSLYFKLRSMIPCCLCHVNFTVSLPEDELIQVTVTAVAITFDKNQALQTTKTPVEKSLQRASTDNEELLQFPLELCSDSLPSHPFPPAKAMTVEKASPVGDGNFRNRSAPPCANSTVGVVKMTPLSFIPGAKITKYLGIINMFFIRETTSLREEGGVSGFLHAFIAEVFAMVRAHVAALGGNAVVSYIMKQCVFMENPNKNQAQCLINVSGDAVVFVRESDLEVVSSQQPTTNCQSSCTEGEVTT
